A compilation of properties of binary mixtures (doi:10.1021/je00013a021)
The densities may have been worked out from excess volumes.

Assay: xn = mol fraction of the nth substance listed
Conditions: 100 kPa

[Cl][Al]([Cl])[Cl] + CC[n+]1ccn(C)c1.[Cl-]
mass density (288.15 K, x1 = 0.5): 1304.7 kg/m3
mass density (288.15 K, x1 = 0.55): 1329.1 kg/m3
mass density (288.15 K, x1 = 0.6): 1358 kg/m3
mass density (288.15 K, x1 = 0.6667): 1401 kg/m3
mass density (298.15 K, x1 = 0.5): 1296.7 kg/m3
mass density (298.15 K, x1 = 0.55): 1320.3 kg/m3
mass density (298.15 K, x1 = 0.6667): 1390.6 kg/m3
mass density (308.15 K, x1 = 0.5): 1288.7 kg/m3
mass density (308.15 K, x1 = 0.55): 1312.9 kg/m3
mass density (308.15 K, x1 = 0.6): 1340.7 kg/m3
mass density (308.15 K, x1 = 0.6667): 1381.9 kg/m3
mass density (318.15 K, x1 = 0.5): 1280.7 kg/m3
mass density (318.15 K, x1 = 0.55): 1303.9 kg/m3
mass density (318.15 K, x1 = 0.6): 1331.6 kg/m3
mass density (318.15 K, x1 = 0.6667): 1372.2 kg/m3
mass density (328.15 K, x1 = 0.5): 1272.8 kg/m3
mass density (328.15 K, x1 = 0.55): 1296.2 kg/m3
mass density (328.15 K, x1 = 0.6667): 1362.7 kg/m3
mass density (338.15 K, x1 = 0.5): 1264.8 kg/m3
mass density (338.15 K, x1 = 0.55): 1287.3 kg/m3
mass density (338.15 K, x1 = 0.6): 1314.5 kg/m3
mass density (338.15 K, x1 = 0.6667): 1353.6 kg/m3
mass density (348.15 K, x1 = 0.5): 1256.8 kg/m3
mass density (348.15 K, x1 = 0.55): 1278.7 kg/m3
mass density (348.15 K, x1 = 0.6): 1305.1 kg/m3
mass density (348.15 K, x1 = 0.6667): 1343.5 kg/m3
mass density (358.15 K, x1 = 0.5): 1248.8 kg/m3
mass density (358.15 K, x1 = 0.6): 1296.9 kg/m3
mass density (358.15 K, x1 = 0.6667): 1333.7 kg/m3
mass density (368.15 K, x1 = 0.5): 1240.8 kg/m3
mass density (368.15 K, x1 = 0.55): 1262.4 kg/m3
mass density (368.15 K, x1 = 0.6): 1287.9 kg/m3
mass density (368.15 K, x1 = 0.6667): 1324.3 kg/m3
mass density (378.15 K, x1 = 0.5): 1232.8 kg/m3
mass density (378.15 K, x1 = 0.55): 1254 kg/m3
mass density (378.15 K, x1 = 0.6667): 1314.9 kg/m3
